The text below walks through data of a collection of fitness landscapes (doi:10.1126/science.1257360).

Some of the results follow. Some results are limits rather than exact numbers.

First the molecules themselves.
B1: PhoQ; a variant is named by its letters at X, in order, P23837 (parent)
chain: MKKLLRLFFPLSLRVRFLLATAAVVLVLSLAYGMVALIGYSVSFDKTTFRLLRGESNLFYTLAKWENNKLHVELPENIDKQSPTMTLIYDENGQLLWAQRDVPWLMKMIQPDWLKSNGFHEIEADVNDTSLLLSGDHSIQQQLQEVREDDDDAEMTHSVAVNVYPATSRMPKLTIVVVDTIPVELKSSYMVWSWFIYVLSANLLLVIPLLWVAAWWSLRPIEALAKEVRELEEHNRELLNPATTRELTSLVRNLNRLLKSERERYDKYRTTLTDLTHSLKTPLXXLQXXLRSLRSEKMSVSDAEPVMLEQISRISQQIGYYLHRASMRGGTLLSRELHPVAPLLDNLTSALNKVYQRKGVNISLDISPEISFVGEQNDFVEVMGNVLDNACKYCLEFVEISARQTDEHLYIVVEDDGPGIPLSKREVIFDRGQRVDTLRPGQGVGLAVAREITEQYEGKIVAGESMLGGARMEVIFGRQHSAPKDE

The variants in the assay derive from B1. The assay can be described thus: enrichment ratio after two sorts for PhoP signalling (ratio (wild type AVST 3.29)); higher = more functional. To be noted: with PhoP (E. coli).
In the case of HFLQ, the enrichment ratio is no more than 0.25. With PHFY, the enrichment ratio is no more than 0.25. For the variant FALF, the enrichment ratio came out at 8.88. To NYKH belongs no more than 0.25.

For ADVY, the enrichment ratio was no more than 0.25. To VWYC belongs no more than 0.25. Consider TIMQ, for which the enrichment ratio is 5.14. For LHHK, the enrichment ratio is no more than 0.25. As for TQTM, the enrichment ratio worked out at 22.5.

With PHPD, the enrichment ratio is no more than 0.25.

Turning to SSYH, the enrichment ratio was no more than 0.25. To MHHE belongs no more than 0.25; to RSVY, no more than 0.25; to GPWR, no more than 0.25. In the case of VIPD, the enrichment ratio is no more than 0.25.

In the case of FAMS, the enrichment ratio is no more than 0.25. As for WRRY, the figure is no more than 0.25.

Consider QDWN, for which the enrichment ratio is no more than 0.25. Consider YRYM, for which the enrichment ratio is no more than 0.25.

Consider TYKP, for which the enrichment ratio was no more than 0.25. As for WEYH, the figure is no more than 0.25; as for NFAE, no more than 0.25. As for KATD, the figure is no more than 0.25.

Regarding TTTP, the enrichment ratio was no more than 0.25. As for FVYN, the figure is no more than 0.25. Consider DNMM, for which the enrichment ratio was no more than 0.25. To AFYE belongs no more than 0.25; to MGSN, 1.03.

Regarding WKYK, the enrichment ratio was no more than 0.25. As for NRFT, the figure is no more than 0.25; as for ISCM, 2.52; as for DEHM, no more than 0.25. Consider CLYS, for which the enrichment ratio was no more than 0.25. To SGSL belongs 11.8.

MCPQ: the enrichment ratio is no more than 0.25. Consider PWCV, for which the enrichment ratio was no more than 0.25. Regarding WVCK, the enrichment ratio is no more than 0.25. As for SDCM, the figure is 17.2; as for PDFG, no more than 0.25. To EYVR belongs no more than 0.25; to LPQK, no more than 0.25. To HTHA belongs no more than 0.25; to GPIW, no more than 0.25.

As to TIAA, the enrichment ratio is 12. To CFRL belongs no more than 0.25; to SFKY, no more than 0.25. On to WMVG, for which the enrichment ratio is no more than 0.25. As for VNDI, the figure is no more than 0.25; as for RGWV, no more than 0.25; as for GIQP, no more than 0.25.

For the variant DMTT, the enrichment ratio is no more than 0.25. As for DSMN, the figure is no more than 0.25. As for GRAV, the figure is no more than 0.25; as for PVMI, no more than 0.25.

With KESE, the enrichment ratio is no more than 0.25. Take FVAN: the enrichment ratio is no more than 0.25. As for LQRA, the figure is no more than 0.25. To LTIT belongs no more than 0.25. To PDYN belongs no more than 0.25. Take VKFF: the enrichment ratio is no more than 0.25.

Take NSPN: the enrichment ratio was no more than 0.25. As for IEMN, the enrichment ratio was no more than 0.25.

VSAL: the enrichment ratio came out at 3.53. As for GKIH, the figure is no more than 0.25; as for FWGQ, 1.28; as for QIWG, no more than 0.25. As for WISL, the figure is no more than 0.25; as for DQDS, no more than 0.25; as for DPKN, no more than 0.25. For GSDC, the enrichment ratio was no more than 0.25. For WPCL, the enrichment ratio was no more than 0.25.

Consider IEPN, for which the enrichment ratio was no more than 0.25.

Regarding FHGP, the enrichment ratio is no more than 0.25. To LVIQ belongs no more than 0.25; to WEQI, no more than 0.25; to QYAW, no more than 0.25.

As for SQPP, the enrichment ratio was no more than 0.25. As for HDLF, the figure is no more than 0.25; as for HFQR, no more than 0.25. Turning to FRQV, the enrichment ratio was no more than 0.25. Consider TPYS, for which the enrichment ratio is no more than 0.25. As for KHSA, the figure is no more than 0.25; as for IYSK, no more than 0.25; as for GLFM, no more than 0.25. FQKA: the enrichment ratio was no more than 0.25.

Take RWCS: the enrichment ratio is no more than 0.25. To MSRV belongs no more than 0.25; to MTSG, 1.93.

Turning to LRQT, the enrichment ratio was no more than 0.25. For the variant NEMG, the enrichment ratio was no more than 0.25. On to RFIM, for which the enrichment ratio is no more than 0.25. For the variant WIPM, the enrichment ratio is no more than 0.25.

Consider EMVK, for which the enrichment ratio is no more than 0.25. Regarding IEAT, the enrichment ratio was no more than 0.25.

Turning to GTIP, the enrichment ratio was no more than 0.25. As for VKPF, the figure is no more than 0.25; as for AHRL, no more than 0.25.

As to HLPC, the enrichment ratio is no more than 0.25. KMEW: the enrichment ratio was no more than 0.25.

For QLPQ, the enrichment ratio is no more than 0.25. To EKKC belongs no more than 0.25; to IWAF, no more than 0.25; to VENF, no more than 0.25. As for VHMH, the figure is no more than 0.25; as for GHPF, no more than 0.25; as for QRPW, no more than 0.25. As for QIVF, the figure is no more than 0.25; as for SHYV, no more than 0.25; as for DADI, no more than 0.25. For the variant QVPK, the enrichment ratio was no more than 0.25.

In the case of TCYT, the enrichment ratio was 1.52. As for YQMH, the figure is no more than 0.25; as for HRNN, no more than 0.25. KISR: the enrichment ratio was no more than 0.25.

Regarding SNQG, the enrichment ratio was 6.93.

As to YEDW, the enrichment ratio was no more than 0.25.

As for YCLR, the enrichment ratio was no more than 0.25. As for SFII, the figure is no more than 0.25. As for MLTQ, the enrichment ratio was no more than 0.25. To MRRW belongs no more than 0.25; to GPMF, no more than 0.25.

As to TQVA, the enrichment ratio is 3.07. FADS: the enrichment ratio is no more than 0.25.

For MKQE, the enrichment ratio was no more than 0.25.

Consider PQQI, for which the enrichment ratio is no more than 0.25. As for IFSV, the figure is no more than 0.25; as for GDIP, no more than 0.25. As for RYQF, the figure is no more than 0.25. HISR: the enrichment ratio is no more than 0.25. For DAVR, the enrichment ratio is no more than 0.25. Consider DFTP, for which the enrichment ratio is no more than 0.25. In the case of PGER, the enrichment ratio is no more than 0.25. On to FITN, for which the enrichment ratio is no more than 0.25.

With TRAN, the enrichment ratio is no more than 0.25. On to MDWY, for which the enrichment ratio is no more than 0.25.

For MLTG, the enrichment ratio is no more than 0.25.

Consider NRYD, for which the enrichment ratio is no more than 0.25. To ASIA belongs 13.9; to WHLG, no more than 0.25; to VVHK, no more than 0.25.

As to ECAL, the enrichment ratio was no more than 0.25. To VLWL belongs no more than 0.25. As to RTKF, the enrichment ratio was no more than 0.25. For DRIT, the enrichment ratio was no more than 0.25. To VDTP belongs no more than 0.25; to YNDY, no more than 0.25. For MYPS, the enrichment ratio was no more than 0.25.

For the variant IGYL, the enrichment ratio was no more than 0.25. To VYYS belongs no more than 0.25. To CFHS belongs no more than 0.25; to HQNC, no more than 0.25; to EQNW, no more than 0.25. To IEAH belongs no more than 0.25.
